Data as given in the supplement of paper PMC4604168 (melanoma cell lines).
Some of the results follow. Repeats are few or missing, and single values can be far off.

Experiments:
Assay in all cases: cell count relative to DMSO control; melanoma cells; higher = more viable cells
Details in all cases: library dose: standard library concentration; 72 h
[1] = system: G361
[2] = system: IPC-298
[3] = system: IST-MEL1
[4] = system: LOXIMVI
[5] = system: MEL-HO
[6] = system: MeWo
[7] = system: RPMI7951
[8] = system: RVH-421
[9] = system: SkMel28
[10] = system: SkMel2
[11] = system: SkMel30
[12] = system: SkMel5
[13] = system: UACC257
[14] = system: UACC62
[15] = system: WM115
[16] = system: WM1716
[17] = system: WM1745
[18] = system: WM3526
[19] = system: LB2518-MEL
[20] = system: MZ2-MEL
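Further: cells treated in 1,536-well plates, then fixed and DAPI-stained, with nuclei counted from automated high-throughput microscope images.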

| SMILES | cell count [1] [%] | cell count [2] [%] | cell count [3] [%] | cell count [4] [%] | cell count [5] [%] | cell count [6] [%] | cell count [7] [%] | cell count [8] [%] | cell count [9] [%] | cell count [10] [%] | cell count [11] [%] | cell count [12] [%] | cell count [13] [%] | cell count [14] [%] | cell count [15] [%] | cell count [16] [%] | cell count [17] [%] | cell count [18] [%] | cell count [19] [%] | cell count [20] [%] |
| --- | --- | --- | --- | --- | --- | --- | --- | --- | --- | --- | --- | --- | --- | --- | --- | --- | --- | --- | --- | --- |
| CC[C@]1(O)C[C@H]2CN(CCc3c([nH]c4ccccc34)[C@@](C(=O)OC)(c3cc4c(cc3OC)N(C=O)[C@H]3[C@@](O)(C(=O)OC)[C@H](OC(C)=O)[C@]5(CC)C=CCN6CC[C@]43[C@@H]65)C2)C1 [vincristine] + C=C(c1ccc(C(=O)O)cc1)c1cc2c(cc1C)C(C)(C)CCC2(C)C [Bexarotene] (first compound 0.0005 µM, partner dose 10 µM) | 72.9 | 75.8 | 71.2 | 97.6 | 79 | 99.9 | 37.2 | 123 | 63.8 | 71.8 | 87.7 | 93 | 70.7 | 68.8 | 109 | 52.5 | 70.7 | 75.3 |  |  |
| CC[C@]1(O)C[C@H]2CN(CCc3c([nH]c4ccccc34)[C@@](C(=O)OC)(c3cc4c(cc3OC)N(C=O)[C@H]3[C@@](O)(C(=O)OC)[C@H](OC(C)=O)[C@]5(CC)C=CCN6CC[C@]43[C@@H]65)C2)C1 [vincristine] + C[C@@H](Oc1cc(-c2cnn(C3CCNCC3)c2)cnc1N)c1c(Cl)ccc(F)c1Cl [Crizotinib] (first compound 0.0005 µM, partner dose 1 µM) | 113 | 91.7 | 108 | 113 | 87.6 | 80.5 | 109 | 76.4 | 95.2 | 80.1 | 86.8 | 76.8 | 83.5 | 73.6 | 62 | 58.7 | 50.3 | 54.6 |  |  |
| Cc1cc(Nc2cc(N3CCN(C)CC3)nc(Sc3ccc(NC(=O)C4CC4)cc3)n2)n[nH]1 [Tozasertib] + CCN(CC)CCCCNc1ncc2cc(-c3cc(OC)cc(OC)c3)c(NC(=O)NC(C)(C)C)nc2n1 [PD173074] (first compound 0.03 µM, partner dose 0.5 µM) | 91.2 | 81.3 | 97.3 | 92.8 | 77.2 | 68.4 | 83.8 | 80.8 | 59.2 | 88.3 | 97.5 | 87.5 | 99.3 | 71.9 | 75.3 | 72.2 |  | 77.1 | 77.2 | 66.1 |
| CC[C@]1(O)C[C@H]2CN(CCc3c([nH]c4ccccc34)[C@@](C(=O)OC)(c3cc4c(cc3OC)N(C=O)[C@H]3[C@@](O)(C(=O)OC)[C@H](OC(C)=O)[C@]5(CC)C=CCN6CC[C@]43[C@@H]65)C2)C1 [vincristine] + COC(=O)c1sccc1S(=O)(=O)Nc1ccc(Nc2ccccc2)cc1OC [GSK0660] (first compound 0.0005 µM, partner dose 5 µM) | 57.2 | 68.5 | 44.9 | 55.8 | 54.8 | 24.4 | 19.3 | 51.2 | 17.2 | 13.9 | 42.2 | 37.3 | 45.7 | 64.8 | 25 | 30.7 |  | 49.8 |  |  |
| N#CC[C@H](C1CCCC1)n1cc(-c2ncnc3[nH]ccc23)cn1 [ruxolitinib] + CCCCCCCCCCCC1=C(O)C(=O)C=C(O)C1=O [Embelin] (first compound 5 µM, partner dose 6 µM) | 62 | 69.8 | 60.3 | 82.6 | 58.7 | 77.6 | 77.3 | 60.2 | 94.9 | 89.6 | 93.7 | 50.3 | 84.2 | 70.3 | 101 | 81.6 |  | 91 | 100 | 91.5 |
| CC[C@]1(O)C[C@H]2CN(CCc3c([nH]c4ccccc34)[C@@](C(=O)OC)(c3cc4c(cc3OC)N(C=O)[C@H]3[C@@](O)(C(=O)OC)[C@H](OC(C)=O)[C@]5(CC)C=CCN6CC[C@]43[C@@H]65)C2)C1 [vincristine] + Nc1cccc2c1CN(C1CCC(=O)NC1=O)C2=O [lenalidomide] (first compound 0.0005 µM, partner dose 5 µM) | 104 | 109 | 89.1 | 72.9 | 91.1 | 91.4 | 54.7 | 71.4 | 89.5 | 88.2 | 51.5 | 97.6 | 88.5 | 57.5 | 84.7 | 36.8 | 71 | 65 |  |  |
| CC[C@]1(O)C[C@H]2CN(CCc3c([nH]c4ccccc34)[C@@](C(=O)OC)(c3cc4c(cc3OC)N(C=O)[C@H]3[C@@](O)(C(=O)OC)[C@H](OC(C)=O)[C@]5(CC)C=CCN6CC[C@]43[C@@H]65)C2)C1 [vincristine] + Cn1c(=O)n(-c2ccc(C(C)(C)C#N)cc2)c2c3cc(-c4cnc5ccccc5c4)ccc3ncc21 [NVP-BEZ235] (first compound 0.0005 µM, partner dose 0.02 µM) | 64.2 | 73.6 | 63.4 | 39.3 | 66.9 | 63.8 | 58.3 | 62.9 | 47.8 | 60.4 | 62.8 | 63.6 | 73.1 | 43.8 | 51.2 | 36.7 | 53.7 | 50.9 |  |  |
| N#CC[C@H](C1CCCC1)n1cc(-c2ncnc3[nH]ccc23)cn1 [ruxolitinib] + COc1cc(N2CCC(N3CCN(C)CC3)CC2)ccc1Nc1ncc(Cl)c(Nc2ccccc2S(=O)(=O)C(C)C)n1 [NVP-TAE684] (first compound 5 µM, partner dose 0.4 µM) | 57.4 | 83.9 | 88.7 | 103 | 76.1 | 58.4 | 58.9 | 85.3 | 80.1 | 64.8 | 78.2 | 51.1 | 81.6 | 70.5 | 76.8 | 64.3 |  | 69.1 | 85.9 | 84.9 |
| CC[C@]1(O)C[C@H]2CN(CCc3c([nH]c4ccccc34)[C@@](C(=O)OC)(c3cc4c(cc3OC)N(C=O)[C@H]3[C@@](O)(C(=O)OC)[C@H](OC(C)=O)[C@]5(CC)C=CCN6CC[C@]43[C@@H]65)C2)C1 [vincristine] + Oc1cc(-c2nc(-c3ccccc3)[nH]c2-c2ccncc2)ccc1Cl [L779450] (first compound 0.0005 µM, partner dose 1 µM) | 60.8 | 78.3 | 73.5 | 77.8 | 77.5 | 32.4 | 37.9 | 61.2 | 34.5 | 22.4 | 53.2 | 43.7 | 73 | 46.3 | 27.2 | 31.6 |  | 38.6 | 64.2 | 77.9 |
| N#CC[C@H](C1CCCC1)n1cc(-c2ncnc3[nH]ccc23)cn1 [ruxolitinib] + CCN(CC)CCCCNc1ncc2cc(-c3cc(OC)cc(OC)c3)c(NC(=O)NC(C)(C)C)nc2n1 [PD173074] (first compound 5 µM, partner dose 0.5 µM) | 90 | 92.8 | 125 | 89.4 | 85.1 | 85.5 | 86.1 | 105 | 180 | 101 | 107 | 94.3 | 91.9 | 117 | 98.4 | 85.1 |  | 119 |  |  |
